These results are taken from the RNAGym collection of RNA variant scans (doi:10.7554/elife.90254).

The source gives no read counts; variants with many changes may rest on few reads.

B1: LINE1-mini (parent)
chain: GGCAGAGCUCAACACAGCGUGGCAAAGUGGCUGUGGCUAGACUGCC

The variants in this series derive from B1. The series is described as follows: self-cleavage, relative activity (ratio to wild type); higher = more cleavage; in vitro, sequencing; the parent is a self-cleaving ribozyme.
Turning to GGAAGAGCUCAACACAGCGUGGCAAAUUGGCUGUGGCUAGACUGGC [C3A G27U C45G], the self-cleavage was 0.18.
On to GGGCGAGCUCAAGACUGUGUGGCAAAGUGGCUAUGGCUAGGCUGCG [C3G A4C C13G A16U C18U G33A A41G C46G], for which the self-cleavage is 0.22.
The same measure for GGAAGAGCUCAACACAGCGUGGCAAAGUGGCUGUGUCAAGACUGCC [C3A G36U U38A]: 0.05.
To GGGUGAGCUCAACACAGCGAGGCAAAGUCGGUGUGGCUAGCCUGCC [C3G A4U U20A G29C C31G A41C] belongs 0.01; to GGAAGAGCUCAACACAUCGUGGCAAAGUGGCUGUGCCUAGACUGCC [C3A G17U G36C], 0.39.
The same measure for GGAAGAGCUCAACACAGCAUGGCAAAGUGGGUGUGCCCAGACUGCC [C3A G19A C31G G36C U38C]: 0.06.
With GGGCGAGCUCAACACAGCGGGCCAAAGUGGCUGUGGCUAGACUGCA [C3G A4C U20G G22C C46A], the self-cleavage was found to be 0.05.
The same measure for GGAAGAGCUCAACACAGCGUGCCAAAGUGGCUGUGGCUCGACUUCC [C3A G22C A39C G44U]: 0.04; for GGGUGAGCACAACACAGCGUGGCAAAGUGGCUUUGGCUAGACUGCC [C3G A4U U9A G33U]: 0.18; for GGAAGAGCCCAACACAGCGUGGCAAAGUGGGUGUGGCUAGACUGCC [C3A U9C C31G]: 0.05.
The same measure for GGAAGAGCUCAACACAGCGAGGCAAAGUGGCUGUGCAUAGACUGCG [C3A U20A G36C C37A C46G]: 0.28.
To GGAAGAGCCCAUCACGGCGUGGCAAAGUGGCUGUGGCUAGACUGCC [C3A U9C A12U A16G] belongs 0.04; to GGGAGAGCUCUACACAGCGAGGCAAAGUGGCUGUGGCUAGACUGCC [C3G A11U U20A], 0.03.
As to GGAAGAGCUCAACACAGCUUGGCUAAGUGGCUGUGACUAGAUUGCC [C3A G19U A24U G36A C42U], the self-cleavage came out at 0.56.
To GGAAGAGCACAACACAGCGUGGCAAAGUGGCUGUGCCUAGACUGCC [C3A U9A G36C] belongs 0.11; to GGAAGAGCUCAACACAGCAUGGGAAAGUGGCUGUGGCUAGACUGCC [C3A G19A C23G], 0.09.
To GGGAGAGCUCCACACAGCGUGGCAAAGUGGCCGUGGCUAGACUGCC [C3G A11C U32C] belongs 0.04; to GGGGGAGCUCAACACAGCGUGCCAAAGUGGCUGUGGCUAGACUGCC [C3G A4G G22C], 0.14.
The same measure for GGAAGAGCUCAACACAGCGUGGCAAAGUGGCUGUGCCUAAAAUGCC [C3A G36C G40A C42A]: 0.31; for GGAAGAGCUCAACACAGCGUGUCAAGGUGGCUGUGGCCAGACUGCC [C3A G22U A26G U38C]: 0.44; for GGAAGAGCUCAACACAGCGUGGCAAAGUGGCUGUGGCUAUAGUGCC [C3A G40U C42G]: 0.26.
Take GGGAGUGCUUAACACAGCAUGGCAAAGUGGCUGUGGCUAUACUGCC [C3G A6U C10U G19A G40U]: the self-cleavage was 0.02.
To GGAAGAGCUCAACACAGCGUGGCAAAGGGCCUGUGCCUAGACUGCC [C3A U28G G30C G36C] belongs 0.05.
The same measure for GGGUGAACUCAACACAGCGUUGGAAAGUGUCUGUGGCUAGACUGCU [C3G A4U G7A G21U C23G G30U C46U]: 0.04.
Take GGAAGAGCUCAACACAGCUCGGCAACGUGGCUGGGGCUAUACUGCC [C3A G19U U20C A26C U34G G40U]: the self-cleavage was 0.01.
The same measure for GGGAGUGCUCAACAUAGCGUGGCACAGUGGCUUUGGCGAGACUGCC [C3G A6U C15U A25C G33U U38G]: 0.11; for GGAAGAGCUCAACACAGCGUGGCAAAGUGGCUCUGGCUAUACUGCC [C3A G33C G40U]: 0.06; for GGAAGAGCUCAACACAGCGUGACAAAGUAGCUGUGGCAAGACUGCC [C3A G22A G29A U38A]: 0.06.
To GGGAGAGCUCUGCACAGCGUGGCGAAGUGGCUGUGGGUAGACUGCC [C3G A11U A12G A24G C37G] belongs 0.01; to GGGGGAGCUCAACACAGCGUGGCAAAGUUGCUGUGGCUAGACUGCC [C3G A4G G29U], 0.13; to GGAAGAGCUCAACACAGCGUAGCAAAGUCGCUGUGGCUAGAUUGCC [C3A G21A G29C C42U], 0.14.
The same measure for GGAAGAGCUCAACACAGCGUGGCAAAGUGGCUGCUGCUAGACUGCC [C3A U34C G35U]: 0.76.
For GGGAGUGCUCAACACAGCGUGGCAAAGUGGCUGUGGCCAGCCUGCC [C3G A6U U38C A41C], the self-cleavage was determined as 0.05.
To GGAAGAGCUCAACACAGCAUGGCAAAGUGGCUGUGUCUAGACUGCC [C3A G19A G36U] belongs 0.35; to GGAAGAGCUCAACACAGCGUCGCAAAGUGGGUGUGAUUGGAGUGCC [C3A G21C C31G G36A C37U A39G C42G], 0.03; to GGAAGAGCUCAACACAGCGUGGCAAAGUGGCUGUGGCGAUACUGCC [C3A U38G G40U], 0.03.
The same measure for GGGAGCGCUCAACACGGCGUGGCAAGGUGGCUGUGGCUAGACUGCC [C3G A6C A16G A26G]: 0.04; for GGAAGAGCCCAACGCAGCGUGGCAAAAUGGCUGUGGCUAGACUGCC [C3A U9C A14G G27A]: 0.06; for GGAAGAGCUCAACACAGCGUGGCAAAGCGGCUGUGGCUAGACUGCA [C3A U28C C46A]: 0.1.
To GGAAGAGCUCAACACAGCGUGGCAAAGCGGAUGUGGCUACACUGCC [C3A U28C C31A G40C] belongs 0.07.
With GGAAGAGCUCAACACAGCGUGGCAAAGUAGCUGUGGUUAGACUGCC [C3A G29A C37U], the self-cleavage turned out to be 0.03.
To GGGAGUGGUCAACACUGCGUGACAAAGUGUCUGUGGCUAGACUGCC [C3G A6U C8G A16U G22A G30U] belongs 0.01; to GGGCGAGCGCAACAAAGCGUGGCAAAGUGGCUGUGGCUAGACUGCC [C3G A4C U9G C15A], 0.44; to GGAAGAGCUCAACACAGCGUGUCAAACUGGCUGUAGCUAGACUACC [C3A G22U G27C G35A G44A], 0.27.
To GGAAGAGCCCAACACAGCGUGGCAAAGUGGCUGUGGUUAGACUGCC [C3A U9C C37U] belongs 0.04.
To GGAAGAGCUCAACACAGCGCGGCAAAGUGGUUGUGGCUAGACUGCC [C3A U20C C31U] belongs 0.13.
In the case of GGGAGGGCUCAGCACAGCGUGGCAAAGUGGCUGUGGCUAGACUGCC [C3G A6G A12G], the self-cleavage is 0.01.
To GGGAGAGCUCGAGACCGCGAGGCAAAGUUGCUGUGGCUAGACUGCC [C3G A11G C13G A16C U20A G29U] belongs 0.01; to GGGAGCGCUCAACACAGCGUGGCAAAGUGGCUGGCGUUAGAUUGCU [C3G A6C U34G G35C C37U C42U C46U], 0.12; to GGAAGAGCAUAACACAGCGUGGCAAAGUGGCUGUGGCUAGACCGGC [C3A U9A C10U U43C C45G], 0.11.
Take GGAAGAGCUCAACACAGCGUGGCAAAGUGGCUGCGGCUUGACUGCC [C3A U34C A39U]: the self-cleavage came to 0.06.
The same measure for GGGUGUGCUCAACACAGCGUGCCCAAGUGGCUGUGGUUAGACUGCC [C3G A4U A6U G22C A24C C37U]: 0.02; for GGGAGGGCUCAACACCGCCUGGCAAAGUGGCUGUGUCUAGACUGCC [C3G A6G A16C G19C G36U]: 0.02; for GGGAGAGCUCGACACAGCGUGGCAGAGUGGGUGUGGCUAGACUGCC [C3G A11G A25G C31G]: 0.01.
GGGUGAUCUCAACACAGUGUGGCAAAGUGGCUGUGGCUAGACUGCC [C3G A4U G7U C18U]: the self-cleavage amounted to 0.06.
The same measure for GGGAGCGCUCAACACAGCCUGGCAAAGUGGCUGUGGCUAGACUGCC [C3G A6C G19C]: 0.17.
